# Data reported in the supplement of paper PMC4466236.
# In all, about 33,000 sequences were measured (“E-score (dimensionless, -0.5 to 0.5)”: median about -0.058, highest 2% from about 0.35 on). The list shows a part of the results.
# Tested on: MvaT
# Test: PBM 8-mer E-score (mean of HK and ME arrays) (E-score (dimensionless, -0.5 to 0.5)); higher = stronger relative binding preference; most listed sequences are background and not binding sites
# Procedure, shortened: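 Full-length P. aeruginosa MvaT carrying an N-terminal glutathione S-transferase tag was tested by protein binding microarray following a previously described protocol. Two universal double-stranded 60-mer arrays, ME and HK, were used, each with a constant 25-mer primer region and a variable 35-mer region covering all 8-mers. The rank-based E-score is the mean of the two arrays, parsed with a custom script. Its range runs from -0.5 to 0.5 for each 8-mer.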
row,Sequence,PBM 8-mer E-score
1,ATCACCTG,-0.0796
2,GACCCAAA,0.0243
3,GGCAAGAC,-0.188
4,CGCCACCC,-0.121
5,TAAGTGAA,0.116
6,ATGCACTA,-0.018
7,GTTATTCA,0.236
8,CAAAATAC,0.251
9,CCAATTGA,0.0512
10,GCCCTCCC,-0.3
11,AGCGATAT,0.199
12,AACCCATC,-0.0855
13,CCCGTAAG,-0.0526
14,ACCATTTC,-0.0466
15,CCTCTTTA,0.0334
16,GTAGTGTA,0.0767
17,ATGGACAT,0.0935
18,ATTATTGG,0.293
19,GCTAAAGC,-0.182
20,CCTAGATC,-0.178
21,GCGAGCCA,-0.16
22,CAGATCGG,-0.145
23,CGTACAGC,-0.216
24,ACTCTGCA,-0.0512

row,Sequence,PBM 8-mer E-score
1,ACAGCCCC,-0.322
2,CCTACAAG,-0.202
3,GAGAGATA,0.142
4,ATGATAGA,0.216
5,CGACTCTA,-0.0974
6,CCCTGACC,-0.29
7,CACCACAG,0.0558
8,ACCAAACA,0.16
9,ACGCGATG,-0.0332
10,CCAGAAGA,-0.112
11,CCTTTCAA,0.0897
12,GCGCAGAC,-0.149
13,CTCCCGAC,-0.14
14,AAGGCTTC,-0.32
15,CGGTTCAG,-0.146
16,GGGTGAGA,-0.0612
17,CAGAAATG,0.103
18,CTAGCGTC,-0.298
19,ACTGTATA,0.305
20,AGTGATCG,-0.118
21,ATGAACGG,-0.121
22,CAAAGAAC,0.131
23,ACCTCAAC,-0.185
24,CCATCAGA,-0.0987

row,Sequence,PBM 8-mer E-score
1,GTATAGAA,0.0668
2,CTGACGTA,-0.0317
3,CTCGGTGA,-0.154
4,AGGATCAC,-0.113
5,CCCTCAAG,-0.253
6,CTGGTGCC,-0.116
7,AAATAACT,0.375
8,CATTAAGG,0.0854
9,CGACACCG,-0.239
10,AGCTATGG,-0.27
11,ATACCATA,0.29
12,ACGCCCGT,-0.237
13,CGTTGAGC,-0.226
14,TGGACGAA,-0.181
15,CCCTGGTA,-0.221
16,GTCGACGA,-0.125
17,ACGGCGAA,-0.0402
18,ATCTGTAC,0.0307
19,CATGAAAC,0.021
20,TACGTCCA,-0.0282
21,GGAGTGGA,-0.246
22,CAACCTAA,0.0563
23,GAAAGGCA,-0.212
24,AACGAGCG,-0.139

row,Sequence,PBM 8-mer E-score
1,AAGTCGCG,-0.0326
2,ATTCTGCG,-0.0487
3,AATCTGGC,0.00801
4,GATGCTCA,-0.298
5,TCGGTTCA,-0.106
6,CACCTATC,-0.138
7,CTACCGGA,-0.0962
8,GGACAGTA,-0.0349
9,CACCTGAA,-0.101
10,CTGCTTTA,0.0194
11,ACAGTAAT,0.321
12,TAAAATAA,0.438
13,CGGACTTC,-0.019
14,GCTCGACC,-0.273
15,TGCTAACA,0.0452
16,CGTTTCAA,0.0183
17,ATTGGATA,0.187
18,GTAGACCA,-0.112
19,AATATCGT,0.234
20,ACTGGGTA,0.0496
21,AAATTTCA,0.241
22,ACCTGGCA,-0.0572
